About 5,800 (2.1%) of roughly 270,000 compounds were called active. Inconclusive results, whose numbers are uncertain, are shown with a selection of clear calls. Calls follow the shape of the dose curve; as a rule, active = well fitted inhibition curve with a large enough effect; inconclusive = small, poorly fitted or top-dose-only effect; inactive = flat fitted curve, though single readings scatter. Potencies of inconclusive entries are doubtful fits and often do not repeat.
The compounds below were run against Microtubule-associated protein tau (Homo sapiens) (UniProt P10636) (assay: qHTS for Inhibitors of Tau Fibril Formation, Thioflavin T Binding). Conditions: recombinant tau K18 P301L (four-repeat tau fragment), heparin-induced fibrillization, ThT fluorescence; series mostly up to 57.4 µM.
Sequence of UniProt P10636 (P10636 whole entry, looked up, the tested form may be a part): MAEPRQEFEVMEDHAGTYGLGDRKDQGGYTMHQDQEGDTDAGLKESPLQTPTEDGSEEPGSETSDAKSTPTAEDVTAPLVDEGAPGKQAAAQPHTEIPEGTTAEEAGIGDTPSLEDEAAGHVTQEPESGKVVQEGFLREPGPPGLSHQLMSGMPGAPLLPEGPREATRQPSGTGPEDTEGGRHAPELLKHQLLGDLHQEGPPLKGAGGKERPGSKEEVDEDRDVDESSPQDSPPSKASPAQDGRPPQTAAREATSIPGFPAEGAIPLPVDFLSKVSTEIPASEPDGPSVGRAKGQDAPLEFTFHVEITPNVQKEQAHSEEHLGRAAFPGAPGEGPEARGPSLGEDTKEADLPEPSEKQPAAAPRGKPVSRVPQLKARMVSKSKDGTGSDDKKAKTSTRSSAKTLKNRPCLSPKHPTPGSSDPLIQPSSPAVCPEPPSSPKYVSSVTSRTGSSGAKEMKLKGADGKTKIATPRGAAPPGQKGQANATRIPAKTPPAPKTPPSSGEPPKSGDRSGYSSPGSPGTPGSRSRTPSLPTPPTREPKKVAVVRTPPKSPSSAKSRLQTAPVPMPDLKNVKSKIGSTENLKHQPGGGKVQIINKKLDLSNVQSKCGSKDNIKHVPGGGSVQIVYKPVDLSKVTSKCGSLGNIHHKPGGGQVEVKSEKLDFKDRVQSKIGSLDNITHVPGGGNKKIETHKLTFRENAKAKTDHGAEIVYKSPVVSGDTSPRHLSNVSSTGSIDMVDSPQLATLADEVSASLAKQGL
In short: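 Heparin-induced (20 uM) aggregation of recombinant human K18 P301L tau, 15 uM unlabeled with 0.24 uM labeled, pH 7 acetate buffer, 6 hr at 37 C with compound. Fibrils quantified by 30 uM ThT fluorescence after 1 hr ambient incubation.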
For `CCC(=O)NC(=Nc1nc2ccccc2s1)NC(=O)CC`, the Potency was inconclusive: 25.1 µM [inhibitor, partial curve]. With `CCOc1ccc(NC(=O)c2csc3c2CCCC3)cc1` the Potency was inconclusive: 14.1 µM [inhibitor, partial curve]. In the case of `COc1ccc(NC(=O)CNc2cc(S(=O)(=O)N3CCOCC3)ccc2NCC2CCCO2)cc1` (stereo not given), the Potency is reported as inconclusive: 20 µM [inhibitor, single point]. With `Oc1cccc(/C=N/N2CCN(C3c4ccccc4-c4ccccc43)CC2)c1` the Potency was inconclusive: 39.8 µM [inhibitor, single point]. With `Cc1n[nH]c(C)c1CNCc1c(C(=O)N2CCCCCCC2)nc2ccc(Cl)cn12` the Potency was “inactive”. With `Cn1nc(NC(=O)C(F)(F)F)c2ncc(-c3ccc(Cl)cc3)nc21` the Potency was inconclusive: 7.08 µM [inhibitor, partial curve]. `Cc1ccc(C(C)C)c(OCC(=O)Nc2nc3c(s2)CCCC3)c1` was tested, and the Potency was inconclusive: 22.4 µM [inhibitor, single point]. For `O=C(c1ccccc1F)N1CCN(c2ccc([N+](=O)[O-])c3cccnc23)CC1`, the Potency was inconclusive: 14.1 µM [inhibitor, partial curve]. `CN1CC(=O)N(CC(=O)Nc2ccc(N(C)C)cc2)c2ccccc2C1=O` was tested, and the Potency was inconclusive: 28.2 µM [inhibitor, partial curve]. `CCOC(=O)c1sc2ncn(/N=C/c3ccc(O)c(OC)c3)c(=O)c2c1C` was tested, and the Potency was inconclusive: 1.41 µM [inhibitor, full curve]. `COc1cccc(CN2C(=O)C3(SCC(=O)N3c3cc(C)cc(C)c3)c3ccccc32)c1` (stereo not given) was tested, and the Potency was inconclusive: 35.5 µM [inhibitor, single point]. `O=C(Nc1ccc2c(c1)OCO2)N1CCN(c2ccc(F)cc2)CC1` was tested, and the Potency was inconclusive: 12.6 µM [inhibitor, partial curve]. `NC(=O)C1CCN(C(=O)c2ccc3c(=O)n(Cc4ccco4)c(SCC(=O)c4ccc(F)cc4)nc3c2)CC1` was tested, and the Potency was “inactive”. `O=C(Nc1cccc(C(F)(F)F)c1)c1ccc(N2CCNCC2)c([N+](=O)[O-])c1` was tested, and the Potency was inconclusive: 15.8 µM [inhibitor, partial curve]. With `O=C(Nc1ccccc1N1CCOCC1)c1csc2c1CCCC2` the Potency was inconclusive: 31.6 µM [inhibitor, single point]. `COC(=O)Cn1nc(-c2ccccc2)c2cc(Cl)ccc21` was tested, and the Potency was inconclusive: 28.2 µM [inhibitor, partial curve]. For `CCOC(=O)CC(=O)CSc1[nH]c(=O)cc(C)c1C#N`, the Potency was “inactive”. In the case of `O=C(Nc1ccc(N2CCOCC2)cc1)C1CCN(S(=O)(=O)Cc2ccccc2)CC1`, the Potency is reported as inconclusive: 2.24 µM [inhibitor, full curve]. `C=CCN1C(=O)C(CC(C)C)NC1=S` (stereo not given) was tested, and the Potency was “inactive”. `COc1ccc(N(C)C(=O)c2cc3c(s2)-c2ccccc2OC3)cc1` was tested, and the Potency was inconclusive: 12.6 µM [inhibitor, partial curve]. In the case of `Cc1ccc(Cl)cc1N1CCN(C(=O)C2CCCN(Cc3nc(-c4cccc(Cl)c4)oc3C)C2)CC1` (stereo not given), the Potency is reported as inconclusive: 11.2 µM [inhibitor, partial curve]. In the case of `C/C(=N\NC(=O)c1ccc([N+](=O)[O-])cc1)c1cc2ccccc2oc1=O`, the Potency is reported as inconclusive: 35.5 µM [inhibitor, single point]. `O=C(c1cccc(F)c1)N1CCN(c2cc(N3CCCCC3)c(F)cc2[N+](=O)[O-])CC1` was tested, and the Potency was inconclusive: 28.2 µM [inhibitor, partial curve, poor fit]. `COc1ccc2nc(NC(=O)c3cccnc3SC)sc2c1` was tested, and the Potency was inconclusive: 17.8 µM [inhibitor, single point]. With `COc1cccc(CNc2ccccc2O)c1OCc1ccccc1F` the Potency was inconclusive: 22.4 µM [inhibitor, partial curve]. For `Oc1c(C(Nc2ccccn2)c2cccnc2)cc(Cl)c2cccnc12` (stereo not given), the Potency was inconclusive: 15.8 µM [inhibitor, partial curve]. For `COc1ccc(C(=O)N2CCN(c3nc4c(C)c(Cl)ccc4s3)CC2)c(OC)c1`, the Potency was inconclusive: 25.1 µM [inhibitor, single point]. With `O=C(O)C(Cc1ccccc1)N1C(=O)/C(=C/c2cccs2)SC1=S` (stereo not given) the Potency was inconclusive: 25.1 µM [inhibitor, partial curve]. For `CC(=O)N1CCN(c2ccccc2NC(=O)c2ccc(-c3cccc([N+](=O)[O-])c3)o2)CC1`, the Potency was “inactive”. `O=C(COc1ccc(S(=O)(=O)NC2CCCCC2)cc1Cl)Nc1ccc2c(c1)OCO2` was tested, and the Potency was inconclusive: 20 µM [inhibitor, partial curve]. With `O=C(N/N=C/c1ccc(O)cc1O)c1ccc(CN2C(=O)c3cccc4cccc2c34)cc1` the Potency was inconclusive: 2.82 µM [inhibitor, full curve]. In the case of `CC(=O)N=Nc1[nH]c(N)c2ccccc12`, the Potency is reported as “inactive”. For `CC(C)CN1C(=O)/C(=C/c2c(N3CCc4ccccc4C3)nc3ccccn3c2=O)SC1=S`, the Potency was inconclusive: 1.41 µM [inhibitor, full curve, poor fit]. With `Nc1ccc2oc(Cc3ccc(Cl)cc3)nc2c1` the Potency was active: 22.4 µM. With `O=[N+]([O-])C1=CC=C2C(=NC3(CCCCC3)N2O)C1=NCCc1ccccc1` the Potency was inconclusive: 28.2 µM [inhibitor, partial curve, poor fit]. In the case of `Cc1cc(OCC(=O)Nc2nnc(C3CC3)s2)ccc1[N+](=O)[O-]`, the Potency is reported as inconclusive: 0.398 µM [inhibitor, full curve]. `CCCC(=O)Nc1ccc2nc(SCc3ccc(C)cc3)sc2c1` was tested, and the Potency was “inactive”. For `Cc1ccccc1NC1c2ccccc2C(=O)N1Cc1ccco1` (stereo not given), the Potency was inconclusive: 39.8 µM [inhibitor, single point]. `Cc1ccc(-c2cc3nc(C)cc(NCc4ccco4)n3n2)cc1` was tested, and the Potency was inconclusive: 14.1 µM [inhibitor, partial curve, poor fit]. `O=C1C(NS(=O)(=O)c2ccc(Cl)cc2)=C(N2CCCCC2)C(=O)c2ccccc21` was tested, and the Potency was active: 15.8 µM. For `CCN(CC)C(=O)C1CCCN(Cc2cccc(Oc3ccccc3)c2)C1` (stereo not given), the Potency was “inactive”. In the case of `COc1cccc(-c2ccc3c(N)c(C(=O)Nc4ccccc4C)sc3n2)c1`, the Potency is reported as inconclusive: 5.01 µM [inhibitor, partial curve]. `CCS(=O)(=O)N1CCN(c2ccc(C(=O)NC34CC5CC(CC(C5)C3)C4)cc2[N+](=O)[O-])CC1` was tested, and the Potency was inconclusive: 14.1 µM [inhibitor, partial curve, poor fit]. In the case of `CC(C)NC(=S)N/N=C/c1ccc(C(C)(C)C)cc1`, the Potency is reported as inconclusive: 25.1 µM [inhibitor, single point]. In the case of `Cc1ccccc1OCC(=O)N/N=C/c1ccc2c(c1)OCCO2`, the Potency is reported as inconclusive: 25.1 µM [inhibitor, single point]. `CCCCNC(=O)c1ccc2c(c1)NC(=O)C(CS(=O)(=O)Cc1ccc(F)cc1Cl)N2` (stereo not given) was tested, and the Potency was inconclusive: 15.8 µM [inhibitor, partial curve]. For `O=C(O)C1CC=CCC1C(=O)Nc1ccc(N2CCN(Cc3ccccc3)CC2)cc1` (stereo not given), the Potency was inconclusive: 17.8 µM [inhibitor, single point]. In the case of `C/C=C/C1=CC2=CC(=O)C(C)(OC(=O)c3c(C)cc(O)cc3O)C(=O)C2=CO1` (stereo not given), the Potency is reported as inconclusive: 25.1 µM [inhibitor, partial curve]. For `O=c1oc2ccccc2cc1-c1nnc(-c2cccc(Br)c2)o1`, the Potency was inconclusive: 25.1 µM [inhibitor, partial curve]. In the case of `CCOC(=O)c1ccc(NC(=O)c2c(NCc3cc(OC)ccc3OC)sc3c2CCC3)cc1`, the Potency is reported as inconclusive: 25.1 µM [inhibitor, single point]. `COc1ccc(C(=O)C2CCCN(C(=O)CCc3scnc3C)C2)c(C)c1` (stereo not given) was tested, and the Potency was active: 28.2 µM. `O=C(c1ccc2c(=O)n(Cc3ccco3)c(=S)[nH]c2c1)N1CCN(Cc2ccccc2)CC1` was tested, and the Potency was inconclusive: 3.98 µM [inhibitor, full curve, poor fit]. In the case of `Cc1ccc2cc3cc(C(=O)N(C)c4ccccc4C)oc3nc2c1`, the Potency is reported as inconclusive: 39.8 µM [inhibitor, single point]. With `CCn1cc(C(=O)Nc2ccc(C(C)C)cc2)c2cc(OC)c(OC)cc2c1=O` the Potency was inconclusive: 35.5 µM [inhibitor, single point]. In the case of `CSCc1c(C(=O)Nc2ccc(N3CCOCC3)cc2)oc2ccccc12`, the Potency is reported as inconclusive: 5.01 µM [inhibitor, full curve]. `S=C(Nc1ccccc1)Nc1ccc2cn[nH]c2c1` was tested, and the Potency was active: 8.91 µM. `COc1ccc(Nc2cc(C(=O)NCCCN3CCN(C)CC3)c3ccccc3n2)cc1` was tested, and the Potency was inconclusive: 17.8 µM [inhibitor, partial curve]. For `COc1ccc(Cn2cnc([N+](=O)[O-])c2)cc1[N+](=O)[O-]`, the Potency was “inactive”. `Cc1ccc(/C=N/NC(=O)c2ccc(Br)o2)s1` was tested, and the Potency was “inactive”. In the case of `O=C(CCCNS(=O)(=O)c1cccc2nsnc12)NC1CCCCC1`, the Potency is reported as inconclusive: 7.94 µM [inhibitor, partial curve]. `O=C(O)CN1C(=O)C2C3CC(C2C1=O)C1C(c2ccc(Cl)cc2)c2sc(=O)[nH]c2SC31` (stereo not given) was tested, and the Potency was “inactive”. In the case of `CC(=O)c1cccc(NC(=O)CSc2nc3c(=O)n(C)c(=O)n(C)c3n2C)c1`, the Potency is reported as “inactive”. In the case of `CCOCCCNC(=O)C(c1ccccc1)N(Cc1cccs1)C(=O)c1ccccc1O` (stereo not given), the Potency is reported as “inactive”. For `CC(=O)O/N=C1\C(=O)N(Cc2ccc(C)cc2)c2ccccc21`, the Potency was inconclusive: 25.1 µM [inhibitor, single point]. `Cc1cccc(-n2cnc3cc(C(=O)NC4CCCCCC4)ccc32)c1` was tested, and the Potency was inconclusive: 0.891 µM [inhibitor, partial curve].
Also: nearly all actives have a fitted effect of over 55% in size.
Potency is read from the fitted curve at half-maximal effect; tags tell the direction and shape of the fitted curve.
